# “And” between values parts separate entries of the source, which are not always exact repeats. Equal entries are not always repeated. Screen size: about 340,000 compounds; about 12,000 (3.5%) were called active. The shares of active, inactive and inconclusive entries below differ from those in the screen. Calls follow the shape of the dose curve; as a rule, active = well fitted inhibition curve with a large enough effect; inconclusive = small, poorly fitted or top-dose-only effect, or another doubt; inactive = no such curve, though single readings can be large or run the other way. Potencies beside an inconclusive call are fits to weak or partial responses and may not hold up.
# Test: qHTS Assay for Inhibitors of Hepatitis C Virus (HCV)
# Conditions: Huh7.5.1 HCVcc-Cre (HCVcc is cell-culture hepatitis C virus) infection, luciferase reporter, 44 h; series mostly up to 41.8 µM
# How it was run: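 1,000 cells/well; 4 h culture; + compound; + HCVcc-Cre (~0.5 moi); 44 h; luciferase substrate, RT 15 min; read 15 sec.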
# Potency is read from the fitted curve at half-maximal effect; tags tell the direction and shape of the fitted curve.
row,Structure (SMILES),Potency
1,NC(=O)c1ccc(N2CCN(S(=O)(=O)c3cccs3)CC2)c([N+](=O)[O-])c1,active: 2.24 µM
2,CC(C)(C)C1=CC(=Nc2ccccc2N)C=C(C(C)(C)C)C1=O,inactive
3,O=C(/C=C/c1ccco1)N1CCN(c2ncccn2)CC1,inactive
4,COc1ccc(N(C(=O)c2snc(C(N)=O)c2N)C(C(=O)NC2CCCC2)c2ccco2)c(OC)c1 (stereo not given),"inconclusive: 31.6 µM [inhibitor, single point]"
5,CC(CC(=O)Nc1cc(S(=O)(=O)N2CCOCC2)ccc1OCC(F)(F)F)c1ccccc1 (stereo not given),"inconclusive: 4.47 µM [inhibitor, full curve]"
6,O=c1[nH]nc(-c2n[nH]c(=O)o2)o1,inactive
7,Cc1ccc(C(=O)Nc2c(C)cc(-c3ccc(Cl)cc3)oc2=O)cc1,"inconclusive: 0.316 µM [inhibitor, full curve, poor fit]"
8,CCS(=O)(=O)N1CCN(C(=O)c2cccc3ccccc23)CC1,inactive
9,O=C(NCC1CCCN(C(=O)c2cscn2)C1)c1ccc(-c2ccccc2)cc1 (stereo not given),"inconclusive: 31.6 µM [inhibitor, single point]"
10,O=[N+]([O-])c1ccc(N/N=C/C=C/c2ccco2)cc1,inactive
11,CCNc1c2c(nc3ccccc13)CC(C)(C)CC2=O,"inconclusive: 10 µM [inhibitor, single point]"
12,Cc1ccccc1NCc1ccc(O)c2ncccc12,"inconclusive: 12.6 µM [inhibitor, partial curve]"
13,CCOC(=O)C1(CCOc2ccccc2)CCN(Cc2cccc(F)c2)CC1,"inconclusive: 11.2 µM [inhibitor, partial curve]"
14,Clc1ccc(Sc2cc(N3CCOCC3)nc(-c3ccccc3)n2)cc1,"inconclusive: 0.501 µM [inhibitor, partial curve, poor fit]"
15,CCC1(CC)NC(=O)N(CC(=O)OC(C)C(=O)Nc2cc([N+](=O)[O-])ccc2OC)C1=O (stereo not given),inactive
16,O=C(CCC(=O)N1CCN(Cc2ccc(F)cc2)CC1)Nc1nnc(C(F)(F)F)s1,inactive
17,O=C(N/N=C/c1ccc([N+](=O)[O-])o1)c1cc2ccccc2o1,"inconclusive: 12.6 µM [inhibitor, partial curve]"
18,Cc1nc2ccc(NS(=O)(=O)c3ccc(F)cc3F)cc2s1,"inconclusive: 10 µM [inhibitor, single point]"
19,CC(=O)c1cc2c(cc1NC(=O)CCC1CCCC1)OCO2,"inconclusive: 31.6 µM [inhibitor, single point]"
20,N#CCCN1CCN(S(=O)(=O)c2ccc(C#N)cc2)CC1,inactive
21,O=C(CCc1nnc(-c2ccccc2)o1)NC1CCCCC1,inactive
22,CCc1ccc2ncc(S(=O)(=O)c3ccc(C)c(C)c3)c(N3CCCC3)c2c1,"inconclusive: 22.4 µM [inhibitor, single point]"
23,CC(O)CC(=O)O (stereo not given),"inconclusive: 1.12 µM [inhibitor, partial curve]"
24,O=S(=O)(c1ccccc1)N1CCN(C/C=C/c2ccccc2)CC1,"inconclusive: 3.16 µM [inhibitor, single point]"

row,Structure (SMILES),Potency
1,COc1ccc(NS(=O)(=O)c2cc(N=Nc3c(O)[nH]c(=O)[nH]c3=O)ccc2Cl)cc1,"inconclusive: 17.8 µM [inhibitor, partial curve]"
2,Cc1ccc(C)c(NC(=O)CN(C)C(=O)c2ccc3[nH]c4c(c3c2)CC(C)CC4)c1 (stereo not given),inactive
3,COc1cccc(-c2csc(N3CCN(C(=O)NC45CC6CC(CC(C6)C4)C5)CC3)n2)c1,"inconclusive: 35.5 µM [inhibitor, partial curve, poor fit]"
4,O=[N+]([O-])CC(c1ccccc1)c1c[nH]c2ccccc12 (stereo not given),"inconclusive: 10 µM [inhibitor, single point]"
5,O=C(CCCSc1nnnn1-c1cccc2ccccc12)c1ccc(F)cc1,"inconclusive: 11.2 µM [inhibitor, partial curve]"
6,O=C(NC(=S)Nc1cccc(C(F)(F)F)c1)c1csnn1,inactive
7,Cc1cc(C)c2nc(N3CCCC(C(=O)N4CCN(c5ncccn5)CC4)C3)sc2c1 (stereo not given),"inconclusive: 11.2 µM [inhibitor, partial curve]"
8,O=S(=O)(c1ccc2oc3ccccc3c2c1)N1CCOCC1,"inconclusive: 2.82 µM [inhibitor, partial curve]"
9,O=C(C#Cc1ccccc1)Nc1ccccc1F,"inconclusive: 28.2 µM [inhibitor, single point]"
10,Cc1cccc(N2CCN(C(=O)C(NS(=O)(=O)c3cccs3)c3ccccc3)CC2)c1C (stereo not given),inactive
11,CC(C)CN(C(=O)COC(=O)c1cccc2ccccc12)c1c(N)n(Cc2ccccc2)c(=O)[nH]c1=O,"inconclusive: 10 µM [inhibitor, partial curve]"
12,Cc1ccccc1Cn1nc(C)c(NC(=O)c2cc3nc(-c4ccco4)cc(C(F)(F)F)n3n2)c1C,"inconclusive: 31.6 µM [inhibitor, partial curve]"
13,CCOC(=O)c1sc2nc(CC(=O)OC)nc(N3CCN(c4ccc(OC)cc4)CC3)c2c1C,"inconclusive: 14.1 µM [inhibitor, single point]"
14,CN(C(=O)Nc1ccccc1)C1CCCCC1,inactive
15,CCN1C(=O)CSc2ccc(C(=O)NCc3ccco3)cc21,"inconclusive: 11.2 µM [inhibitor, partial curve]"
16,O=[N+]([O-])c1ccc(-c2nc(-c3cccs3)c(-c3cccs3)[nH]2)cc1,"inconclusive: 22.4 µM [inhibitor, single point]"
17,C=CCSc1nnc(NC(=O)c2c(CC)noc2C)s1,"inconclusive: 31.6 µM [inhibitor, single point]"
18,COc1ccc(C/C(N)=N/OC(=O)c2cccc([N+](=O)[O-])c2)cc1,inactive
19,CC#CCN1c2ccccc2[C@]23C[C@@H](C(=O)OC)N(C(=O)NC(C)(C)C)C2=NC(C(=O)OC)=C(C(=O)OC)[C@H]13,"inconclusive: 8.91 µM [inhibitor, single point]"
20,CCOc1ccc(C(=O)NC2C(=O)N3C(C(=O)O)=C(COC(C)=O)CSC23)cc1OCC (stereo not given),inactive
21,Cc1nn(-c2ccccc2)c2c1c(C)c(CCC(=O)N1CCOCC1)c(=O)n2C,"inconclusive: 31.6 µM [inhibitor, single point]"
22,Cc1cc(=O)oc2c(C)c3occc3cc12,"inconclusive: 25.1 µM [inhibitor, partial curve]"
23,CN(c1ccccc1)S(=O)(=O)c1cccc(NC(=O)Nc2ccc(Cl)cc2C#N)c1,inactive
24,Cc1ccc(-c2nc(CSCC(=O)N3CCOCC3)c(C)o2)cc1,inactive

row,Structure (SMILES),Potency
1,Nn1c(Nc2ccc(Cl)cc2)nncc1=O,"inconclusive: 5.62 µM [inhibitor, single point]"
2,COc1cccc(CNS(=O)(=O)c2cc(-c3cc(C)no3)ccc2C(C)C)c1,"inconclusive: 11.2 µM [inhibitor, partial curve]"
3,CCC(CC)c1nnc(NC(=O)C2=COCCO2)s1,"inconclusive: 22.4 µM [inhibitor, single point]"
4,CCCCCc1cc(O)c2c(C)cc(=O)oc2c1,active: 11.2 µM
5,Cc1nc2ccccn2c1/C(O)=C1\C(=O)C(=O)N(CCN2CCOCC2)C1c1cccnc1 (stereo not given),active: 1 µM
6,COc1cccc(NC(=S)N2CCN(S(C)(=O)=O)CC2)c1,inactive
7,CCOC(=O)c1c(C)n(C)c2ccc(OCC(O)Cn3nc(C)c(Br)c3C)cc12 (stereo not given),"inconclusive: 11.2 µM [inhibitor, partial curve] and inconclusive: 1.58 µM [inhibitor, full curve]"
8,O=C(N/N=C/C=C/c1ccccc1)NC1CCCCC1,"inconclusive: 31.6 µM [inhibitor, single point]"
9,O=C1NNC(c2ccccc2)=N/C1=C\c1ccccc1,inactive
10,Cn1c(CS(=O)Cc2c(Cl)cccc2Cl)nnc1SCc1c(Cl)cccc1Cl (stereo not given),inactive
11,Cc1cc(=O)n(C)c(=O)n1CCCCCOc1cccc([N+](=O)[O-])c1,"inconclusive: 31.6 µM [inhibitor, single point]"
12,Cc1cc(NC(=O)c2c(F)cccc2F)n(-c2nc3ccccc3[nH]2)n1,active: 35.5 µM
13,CCOC(=O)C(C)n1nc(/C=C/c2ccc(OC)cc2)ccc1=O (stereo not given),inactive
14,CC(=O)Nc1ccc(S(=O)(=O)N(C)CC(=O)OCC(=O)Nc2cccnc2Cl)cc1,"inconclusive: 0.316 µM [inhibitor, full curve, poor fit]"
15,O=C(c1cccc(Cl)c1)N1CCC(=O)N(C(COCc2cccc(Cl)c2)Cc2ccccc2)CC1 (stereo not given),"inconclusive: 22.4 µM [inhibitor, single point]"
16,O=C(CSc1nc2ccccc2[nH]1)Nc1c(F)cccc1F,"inconclusive: 2.82 µM [inhibitor, single point]"
17,Clc1cccc(-c2sc(Nc3ccccc3)n[n+]2-c2ccccc2)c1Cl,"inconclusive: 28.2 µM [inhibitor, single point]"
18,CN(C)CCCN(C(=O)CCc1ccccc1)c1nc2ccc(Br)cc2s1,inactive
19,CCOc1c(Cl)cc(/C=C/C(=O)N(CC)CC(=O)Nc2ccc(NC(C)=O)cc2)cc1OC,"inconclusive: 0.562 µM [inhibitor, partial curve, poor fit]"
20,Cc1nc(SCc2ccccc2)c(C(F)(F)F)c(=O)[nH]1,inactive
21,CN1OC(COC(=O)c2ccc(Cl)cc2)CC1c1ccccc1 (stereo not given),"inconclusive: 22.4 µM [inhibitor, single point]"
22,COc1ccc2cc3cc(C(=O)NCCN4CCN(c5ccccc5F)CC4)oc3nc2c1,"inconclusive: 7.94 µM [inhibitor, partial curve]"

# — PubChem BioAssay AID651820 (National Center for Advancing Translational Sciences (NCATS), 2012)
